{"source": "the supplement of paper PMC8728848", "binders": {"B1": {"name": "F17dG (Escherichia coli), Q47199 (protein)", "chain": "MTNFYKVFLAVFILVCCNISQAAVSFIGSTENDVGPSPGSYSRTHAMDNLPFVYNTGNNIGYQNANVWRISKGFCVGLDGKVDLPVVGSLDGQSIYGLTEEVGLLIWMGDTNYSRGTAMSGNSWENVFSGWCVGANTASTQGLSVRVTPVILKRNSSARYSVQKTSIGSIRMRPYNGSSAGSVQTTVNFSLNPFTLNDTVTSCRLLTPSAVNVSLAAISAGQLPSSGDEVVAGTTSLKLQCDAGVTVWATLTDATTPSNRSDILTLTGASTATGVGLRIYKNTDSTPLKFGPDSPVKGNENQWQLSTGTETSPSVRLYVKYVNTGEGINPGTVNGISTFTFSYQ"}}, "test_in_all_cases": "glycan array binding signal (z-score within array); higher = stronger binding", "conditions_in_all_cases": "glycan notation: IUPAC condensed, linker removed", "key": {"Fuc(a1-2)Gal": {"molecular_target": "Fuc(a1-2)Gal", "in_short": "(§1)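 The Consortium for Functional Glycomics database supplied 3228 glycan arrays, of which those lacking an available protein sequence were dropped. The binding signal, a within-array Z-score, was averaged across arrays of the same protein sequence and across linkers. Negative scores can be read as non-binding.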"}, "Fuc(a1-2)Gal(b1-3)GalNAc": {"molecular_target": "Fuc(a1-2)Gal(b1-3)GalNAc", "in_short": "as §1"}, "[1]": {"molecular_target": "Fuc(a1-2)Gal(b1-3)GalNAc(b1-3)Gal", "in_short": "as §1"}, "[2]": {"molecular_target": "Fuc(a1-2)Gal(b1-3)GalNAc(b1-3)Gal(a1-4)Gal(b1-4)Glc", "in_short": "as §1"}, "[3]": {"molecular_target": "Fuc(a1-2)Gal(b1-3)GalNAc(b1-4)[Neu5Ac(a2-3)]Gal(b1-4)Glc", "in_short": "as §1"}, "Fuc(a1-2)Gal(b1-3)GlcNAc": {"molecular_target": "Fuc(a1-2)Gal(b1-3)GlcNAc", "in_short": "as §1"}, "[4]": {"molecular_target": "Fuc(a1-2)Gal(b1-3)GlcNAc(b1-3)Gal(b1-4)Glc", "in_short": "as §1"}, "[5]": {"molecular_target": "Fuc(a1-2)Gal(b1-3)[Fuc(a1-4)]GlcNAc", "in_short": "as §1"}, "Fuc(a1-2)Gal(b1-4)Glc": {"molecular_target": "Fuc(a1-2)Gal(b1-4)Glc", "in_short": "as §1"}, "Fuc(a1-2)Gal(b1-4)GlcNAc": {"molecular_target": "Fuc(a1-2)Gal(b1-4)GlcNAc", "in_short": "as §1"}, "[6]": {"molecular_target": "Fuc(a1-2)Gal(b1-4)GlcNAc(b1-3)Gal(b1-4)GlcNAc", "in_short": "as §1"}, "[7]": {"molecular_target": "Fuc(a1-2)Gal(b1-4)GlcNAc(b1-3)Gal(b1-4)GlcNAc(b1-3)Gal(b1-4)GlcNAc", "in_short": "as §1"}, "[8]": {"molecular_target": "Fuc(a1-2)Gal(b1-4)[Fuc(a1-3)]GlcNAc", "in_short": "as §1"}, "[9]": {"molecular_target": "Fuc(a1-2)Gal(b1-4)[Fuc(a1-3)]GlcNAc(b1-3)Gal(b1-4)[Fuc(a1-3)]GlcNAc", "in_short": "as §1"}, "[10]": {"molecular_target": "Fuc(a1-2)Gal(b1-4)[Fuc(a1-3)]GlcNAc(b1-3)Gal(b1-4)[Fuc(a1-3)]GlcNAc(b1-3)Gal(b1-4)[Fuc(a1-3)]GlcNAc", "in_short": "as §1"}, "Fuc(a1-2)GlcNAc": {"molecular_target": "Fuc(a1-2)GlcNAc", "in_short": "as §1"}, "Fuc(a1-2)[Gal(a1-3)]Gal": {"molecular_target": "Fuc(a1-2)[Gal(a1-3)]Gal", "in_short": "as §1"}, "[11]": {"molecular_target": "Fuc(a1-2)[Gal(a1-3)]Gal(b1-3)GlcNAc", "in_short": "as §1"}, "[12]": {"molecular_target": "Fuc(a1-2)[Gal(a1-3)]Gal(b1-4)Glc", "in_short": "as §1"}, "[13]": {"molecular_target": "Fuc(a1-2)[Gal(a1-3)]Gal(b1-4)GlcNAc", "in_short": "as §1"}, "[14]": {"molecular_target": "Fuc(a1-2)[Gal(a1-3)]Gal(b1-4)[Fuc(a1-3)]GlcNAc", "in_short": "as §1"}, "[15]": {"molecular_target": "Fuc(a1-2)[Gal(a1-4)]Gal(b1-4)GlcNAc", "in_short": "as §1"}, "[16]": {"molecular_target": "Fuc(a1-2)[GalNAc(a1-3)]Gal", "in_short": "as §1"}, "[17]": {"molecular_target": "Fuc(a1-2)[GalNAc(a1-3)]Gal(b1-3)GlcNAc", "in_short": "as §1"}, "[18]": {"molecular_target": "Fuc(a1-2)[GalNAc(a1-3)]Gal(b1-4)Glc", "in_short": "as §1"}, "[19]": {"molecular_target": "Fuc(a1-2)[GalNAc(a1-3)]Gal(b1-4)GlcNAc", "in_short": "as §1"}, "[20]": {"molecular_target": "Fuc(a1-2)[GalNAc(a1-3)]Gal(b1-4)[Fuc(a1-3)]GlcNAc", "in_short": "as §1"}, "[21]": {"molecular_target": "Fuc(a1-2)[GalNAc(a1-4)]Gal(b1-4)GlcNAc", "in_short": "as §1"}, "[22]": {"molecular_target": "Fuc(a1-2)[GalNAc(b1-3)]Gal", "in_short": "as §1"}, "Fuc(a1-3)GlcNAc": {"molecular_target": "Fuc(a1-3)GlcNAc", "in_short": "as §1"}, "[23]": {"molecular_target": "Fuc(a1-3)[Gal(b1-4)]GlcNAc", "in_short": "as §1"}, "[24]": {"molecular_target": "Fuc(a1-3)[Gal(b1-4)]GlcNAc(b1-4)Gal(b1-4)[Fuc(a1-3)]GlcNAc", "in_short": "as §1"}, "[25]": {"molecular_target": "Fuc(a1-3)[Gal(b1-4)]GlcNAc(b1-4)Gal(b1-4)[Fuc(a1-3)]GlcNAc(b1-4)Gal(b1-4)[Fuc(a1-3)]GlcNAc", "in_short": "as §1"}, "[26]": {"molecular_target": "Fuc(a1-3)[Gal3S(b1-4)]GlcNAc", "in_short": "as §1"}, "[27]": {"molecular_target": "Fuc(a1-3)[GalNAc(b1-4)]GlcNAc", "in_short": "as §1"}, "Fuc(a1-4)GlcNAc": {"molecular_target": "Fuc(a1-4)GlcNAc", "in_short": "as §1"}, "Fuc(b1-3)GlcNAc": {"molecular_target": "Fuc(b1-3)GlcNAc", "in_short": "as §1"}, "Gal(a1-2)Gal": {"molecular_target": "Gal(a1-2)Gal", "in_short": "as §1"}, "Gal(a1-3)Gal": {"molecular_target": "Gal(a1-3)Gal", "in_short": "as §1"}, "Gal(a1-3)Gal(b1-3)GlcNAc": {"molecular_target": "Gal(a1-3)Gal(b1-3)GlcNAc", "in_short": "as §1"}, "Gal(a1-3)Gal(b1-4)Glc": {"molecular_target": "Gal(a1-3)Gal(b1-4)Glc", "in_short": "as §1"}, "Gal(a1-3)Gal(b1-4)GlcNAc": {"molecular_target": "Gal(a1-3)Gal(b1-4)GlcNAc", "in_short": "as §1"}, "[28]": {"molecular_target": "Gal(a1-3)Gal(b1-4)[Fuc(a1-3)]GlcNAc", "in_short": "as §1"}, "Gal(a1-3)GalNAc": {"molecular_target": "Gal(a1-3)GalNAc", "in_short": "as §1"}, "[29]": {"molecular_target": "Gal(a1-3)[Gal(a1-4)]Gal(b1-4)GlcNAc", "in_short": "as §1"}}, "note": "The list shows a part of the results."}
{"binder": "B1", "values": [{"measurement": "glycan array binding signal (z-score)", "setting": "Fuc(a1-2)Gal", "result": -0.064}, {"measurement": "glycan array binding signal (z-score)", "setting": "Fuc(a1-2)Gal(b1-3)GalNAc", "result": -0.026}, {"measurement": "glycan array binding signal (z-score)", "setting": "[1]", "result": -0.125}, {"measurement": "glycan array binding signal (z-score)", "setting": "[2]", "result": -0.364}, {"measurement": "glycan array binding signal (z-score)", "setting": "[3]", "result": -0.317}, {"measurement": "glycan array binding signal (z-score)", "setting": "Fuc(a1-2)Gal(b1-3)GlcNAc", "result": -0.35}, {"measurement": "glycan array binding signal (z-score)", "setting": "[4]", "result": -0.383}, {"measurement": "glycan array binding signal (z-score)", "setting": "[5]", "result": -0.366}, {"measurement": "glycan array binding signal (z-score)", "setting": "Fuc(a1-2)Gal(b1-4)Glc", "result": 0.016}, {"measurement": "glycan array binding signal (z-score)", "setting": "Fuc(a1-2)Gal(b1-4)GlcNAc", "result": -0.185}, {"measurement": "glycan array binding signal (z-score)", "setting": "[6]", "result": -0.095}, {"measurement": "glycan array binding signal (z-score)", "setting": "[7]", "result": -0.381}, {"measurement": "glycan array binding signal (z-score)", "setting": "[8]", "result": -0.146}, {"measurement": "glycan array binding signal (z-score)", "setting": "[9]", "result": 0.177}, {"measurement": "glycan array binding signal (z-score)", "setting": "[10]", "result": -0.311}, {"measurement": "glycan array binding signal (z-score)", "setting": "Fuc(a1-2)GlcNAc", "result": -0.357}, {"measurement": "glycan array binding signal (z-score)", "setting": "Fuc(a1-2)[Gal(a1-3)]Gal", "result": -0.276}, {"measurement": "glycan array binding signal (z-score)", "setting": "[11]", "result": -0.399}, {"measurement": "glycan array binding signal (z-score)", "setting": "[12]", "result": 0.264}, {"measurement": "glycan array binding signal (z-score)", "setting": "[13]", "result": -0.184}, {"measurement": "glycan array binding signal (z-score)", "setting": "[14]", "result": -0.289}, {"measurement": "glycan array binding signal (z-score)", "setting": "[15]", "result": -0.366}, {"measurement": "glycan array binding signal (z-score)", "setting": "[16]", "result": -0.344}, {"measurement": "glycan array binding signal (z-score)", "setting": "[17]", "result": -0.052}, {"measurement": "glycan array binding signal (z-score)", "setting": "[18]", "result": -0.362}, {"measurement": "glycan array binding signal (z-score)", "setting": "[19]", "result": -0.232}, {"measurement": "glycan array binding signal (z-score)", "setting": "[20]", "result": -0.357}, {"measurement": "glycan array binding signal (z-score)", "setting": "[21]", "result": -0.357}, {"measurement": "glycan array binding signal (z-score)", "setting": "[22]", "result": -0.357}, {"measurement": "glycan array binding signal (z-score)", "setting": "Fuc(a1-3)GlcNAc", "result": 0.035}, {"measurement": "glycan array binding signal (z-score)", "setting": "[23]", "result": -0.321}, {"measurement": "glycan array binding signal (z-score)", "setting": "[24]", "result": -0.112}, {"measurement": "glycan array binding signal (z-score)", "setting": "[25]", "result": -0.134}, {"measurement": "glycan array binding signal (z-score)", "setting": "[26]", "result": -0.365}, {"measurement": "glycan array binding signal (z-score)", "setting": "[27]", "result": -0.362}, {"measurement": "glycan array binding signal (z-score)", "setting": "Fuc(a1-4)GlcNAc", "result": -0.261}, {"measurement": "glycan array binding signal (z-score)", "setting": "Fuc(b1-3)GlcNAc", "result": -0.225}, {"measurement": "glycan array binding signal (z-score)", "setting": "Gal(a1-2)Gal", "result": -0.293}, {"measurement": "glycan array binding signal (z-score)", "setting": "Gal(a1-3)Gal", "result": -0.326}, {"measurement": "glycan array binding signal (z-score)", "setting": "Gal(a1-3)Gal(b1-3)GlcNAc", "result": -0.312}, {"measurement": "glycan array binding signal (z-score)", "setting": "Gal(a1-3)Gal(b1-4)Glc", "result": -0.414}, {"measurement": "glycan array binding signal (z-score)", "setting": "Gal(a1-3)Gal(b1-4)GlcNAc", "result": -0.189}, {"measurement": "glycan array binding signal (z-score)", "setting": "[28]", "result": -0.405}, {"measurement": "glycan array binding signal (z-score)", "setting": "Gal(a1-3)GalNAc", "result": -0.181}, {"measurement": "glycan array binding signal (z-score)", "setting": "[29]", "result": -0.399}]}
